# PubChem BioAssay (NCATS)
# The inconclusive results got no clear call from the source; some entries with a clear call stand among them for comparison. Where the call is inconclusive, the potency comes from a doubtful curve fit. Active and inactive are the calls of the source. Calls follow the shape of the dose curve; as a rule, active = well fitted cell-killing curve with a large enough effect; inconclusive = small, poorly fitted or top-dose-only effect, or effect the other way; inactive = no such curve, though single readings can be large or run the other way.
# Test: Viability qHTS for spleen associated tyrosine kinase inhibitor (SYKi) naive MV4-11 cells (AID 1963823); also: nearly all actives have a fitted effect of over 40% in size
# Conditions: MV4-11 AML viability, CellTiter-Glo luminescence, 72 h; viability (% of control): at 45 µM (top of the series)
# Method in brief: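 Read-out: CellTiter-Glo luminescence. Exposure: 72 hr, 37 C, 5% CO2, 95% humidity. Cells: MV4-11 without SYK inhibitor history, 500/well, qHTS format.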
# Potency is read from the fitted curve at half-maximal effect; tags tell the direction and shape of the fitted curve.
SMILES,viability (% of control),Potency
COC(=O)C1=CO[C@@H](O[C@@H]2O[C@H](COC(=O)/C=C/c3cc(OC)c(O)c(OC)c3)[C@@H](O)[C@H](O)[C@H]2O)[C@@H]2C(CO)=CC[C@H]12,inactive: 77.3% [at 17.3 µM],
C=C1C(=O)O[C@@H]2/C=C(\CO)CC/C=C(\CO)[C@H](OC(C)=O)C(OC(=O)C(C)CC)C12 (stereo not given in full),,active: 5.02 µM
COc1c(C(O)CC(C)C)ccc2c1C(=O)OCc1cc(C)cc(O)c1O2 (stereo not given),,"inconclusive: 14.3 µM [cytotoxic, partial curve]"
O=C1[C@H](O[C@@H]2O[C@H](CO)[C@@H](O)[C@H](O)[C@H]2O)Oc2ccccc2N1O,inactive: 72.3%,
OC[C@H]1O[C@@H](Oc2cc(O)cc(-c3cc4ccc(O[C@@H]5O[C@H](CO)[C@@H](O)[C@H](O)[C@H]5O)cc4o3)c2)[C@H](O)[C@@H](O)[C@@H]1O,,"inconclusive: 14.2 µM [cytotoxic, single point]"
CCCC(=O)O[C@]1(C(=O)COC(=O)CC)CC[C@H]2[C@@H]3CCC4=CC(=O)CC[C@]4(C)[C@H]3[C@@H](O)C[C@@]21C,,"inconclusive: 0.103 µM [rising, full curve]"
CC(C)=CCC/C(C)=C/CO[C@@H]1O[C@H](CO)[C@@H](O)[C@H](O)[C@H]1O,inactive: 85.2%,
Cc1ccc(S(=O)(=O)NCc2ccc(C(=O)NCCN(Cc3ccccc3)C(C)C)cc2)cc1,,"inconclusive: 10.3 µM [cytotoxic, partial curve]"
C/C(=C\CC/C(C)=C/CC[C@]1(C)CCc2cc(O)cc(C)c2O1)CC/C=C(\C)C(=O)O,,"inconclusive: 11.2 µM [cytotoxic, single point]"
CC(=O)O[C@@H]1C[C@@]23C[C@@]24CC[C@H](OC2OC[C@@H](O)[C@H](O)[C@H]2O)C(C)(C)[C@@H]4CC[C@H]3[C@]2(C)CC3OC4(C[C@@H](C)C3[C@@]12C)OCC1(C)OC14 (stereo not given in full),,"inconclusive: 9.68 µM [cytotoxic, single point]"
COc1ccc(Cl)cc1NC(=O)Nc1cc(C)nc2ccccc12,,"inconclusive: 16.4 µM [cytotoxic, partial curve]"
Cc1onc(-c2c(Cl)cccc2Cl)c1CC(=O)NCc1ccc(OCC(F)(F)F)nc1,,"inconclusive: 11.6 µM [cytotoxic, partial curve]"
COc1ccc(/C=C/C(=O)N2CCCC2)cc1,,"inconclusive: 29.1 µM [cytotoxic, single point]"
CCC(Nc1ncnc2nc[nH]c12)c1nc2cccc(F)c2c(=O)n1-c1ccccc1 (stereo not given),,"inconclusive: 5.17 µM [cytotoxic, partial curve]"
COc1cc(N2CCC(N3CCN(C)CC3)CC2)ccc1Nc1ncc(Cl)c(-c2c[nH]c3ccccc23)n1,,"inconclusive: 0.0116 µM [cytotoxic, full curve]"
C=C(COC(=O)C(O)C(O)CN)C12OC1C1(C)C(=CC2=O)C(O)C(O)CC1C (stereo not given),,"inconclusive: 16.1 µM [cytotoxic, single point]"
Cc1c(F)cc(C(=O)NC2CC2)cc1-c1c(F)cn2c(C(C)(C)C)nnc2c1F,,"inconclusive: 4.61 µM [cytotoxic, partial curve, poor fit]"
COc1c2cc(c(O)c1OC)CCCCC(O)CCc1ccc(O)c-2c1 (stereo not given),,"inconclusive: 14.3 µM [cytotoxic, partial curve, poor fit]"
CC(C)NCC(C(=O)N1CCN(c2ncnc3c2C(C)CC3O)CC1)c1ccc(Cl)cc1 (stereo not given),,"inconclusive: 7.31 µM [cytotoxic, partial curve, poor fit]"
O=C(NC1CCC1)c1ccc(C#Cc2cccc(F)c2)nc1,,"inconclusive: 11.6 µM [cytotoxic, partial curve]"

SMILES,viability (% of control),Potency
C=Cc1cc2oc(-c3ccc(O)c(F)c3)nc2cc1O,,"inconclusive: 29.1 µM [cytotoxic, single point]"
CC1OC(OC2C(O)C(OC3CCC4(C)C(CCC5(C)C4CC=C4C6CC(C)(COC7OC(CO)C(O)C(O)C7O)CC(O)C6(C)CCC45C)C3(C)C)OC(C(=O)O)C2O)C(O)C(O)C1OC1OCC(O)C(O)C1O (stereo not given),inactive: 54% [at 9.25 µM],
COc1cc(/C=C/c2ccccc2)c(C(=O)O)c(O)c1CC=C(C)C,,"inconclusive: 12.8 µM [cytotoxic, single point]"
COc1cc(CC(COC2OC(CO)C(O)C(O)C2O)c2cc(/C=C/CO)cc(OC)c2O)ccc1O (stereo not given),inactive: 80.3% [at 17.3 µM],
CC(=O)[C@@]1(O)CC[C@H]2[C@@H]3CCC4=CC(=O)CC[C@]4(C)[C@H]3CC[C@@]21C,,"inconclusive: 16.8 µM [cytotoxic, partial curve]"
CC#C[C@@H](CC(=O)O)c1ccc(OCc2ccc(CN3CCC4(C=Cc5ccccc54)CC3)s2)cc1,,"inconclusive: 14.6 µM [cytotoxic, partial curve]"
COC(=O)[C@H]1[C@H]2C[C@@H]3c4[nH]c5cc(OC)ccc5c4CCN3C[C@H]2C[C@@H](OC(=O)/C=C/c2cc(OC)c(OC)c(OC)c2)[C@@H]1OC,,"inconclusive: 6.11 µM [cytotoxic, single point]"
CCC(C)C(=O)OC1CC(O)C23C4OCC5(C(O)CC2C1(C)C(O)O4)C3C(=O)C(O)C1(C)C(O)(c2ccoc2)CC2OC251 (stereo not given),,"inconclusive: 0.485 µM [cytotoxic, full curve]"
OC[C@H]1O[C@@H](Oc2cc(O)c3c(c2)O[C@@H](c2ccc(O)cc2)[C@H](O)C3)[C@H](O)[C@@H](O)[C@@H]1O,inactive: 76.3% [at 17.3 µM],
C/C(=C\Cc1c(O)c(Cl)c(C)c(C=O)c1O)CC/C=C(\C)[C@H]1CC(=O)C(C)(C)O1,,"inconclusive: 1.42 µM [cytotoxic, full curve]"
CC(C)=CCCC1(C)C2CCC1(C)C(O)C2 (stereo not given),,"inconclusive: 23.1 µM [cytotoxic, partial curve]"
O=C(O)/C=C/c1ccc(Cn2ccnc2)cc1,,inactive
Nc1nnnn1-c1ccccc1,inactive: 78.6%,
NCC[C@H](O)C(=O)N[C@@H]1C[C@H](N)[C@@H](O[C@H]2O[C@H](CN)[C@@H](O)[C@H](O)[C@@H]2O)[C@H](O)[C@@H]1O[C@H]1O[C@H](CO)[C@@H](O)[C@H](N)[C@@H]1O,inactive: 113% [at 0.588 µM],
O=C(Nc1ccc2[nH]c(=O)oc2c1)C(=O)N1CCC(Cc2ccc(F)cc2)CC1,,"inconclusive: 14.6 µM [cytotoxic, partial curve, poor fit]"
CC1=CC2=C(C)C(=O)[C@](C)(O)[C@H](O)C2=CO1,inactive: 75.2%,
CC1(C)CCC[C@]2(C)C1CC=C(CO)[C@H]2CC/C(=C/CO)CO (stereo not given in full),,"inconclusive: 12.8 µM [cytotoxic, single point]"
Cc1cc(-c2ccccc2)nnc1NCCN1CCOCC1,,"inconclusive: 33.5 µM [cytotoxic, single point]"
C#CC(C)(CC)OC(=O)c1ccccc1C(=O)O (stereo not given),inactive: 72.7%,
Nc1ncnc2c1c(-c1ccc(Oc3ccccc3)cc1)nn2[C@@H]1CCCNC1,,active: 0.206 µM
